Measurements: PubChem BioAssay AID1645882 (National Center for Advancing Translational Sciences (NCATS), 2021)
Screen size: about 16,000 compounds; about 120 (0.75%) were called active. About 4% were inconclusive and are not listed. Calls follow the shape of the dose curve; as a rule, active = well fitted inhibition curve with a large enough effect; inconclusive = small, poorly fitted or top-dose-only effect; inactive = no such curve, though single readings can be large or run the other way. The list shows a part of the results.

biological target: Rap guanine nucleotide exchange factor 3 (Homo sapiens) (UniProt O95398); assay: Validation qHTS for antagonist of cAMP-regulated guanine nucleotide exchange factor 3 (EPAC1); conditions: EPAC1 Rap1B-BODIPY-GDP exchange, fluorescence; series mostly up to 150 µM; activity change, negative = inhibition: at the top concentration; also: nearly all actives have a fitted effect of over 75% in size
Outline: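 EPAC1 (100 nM) mixed with 250 nM RAP1B-BODIPY-GDP and 50 uM GDP; compounds in concentration series, 5 min at room temperature. Fluorescence (ex 480/em 540 nm) read every 5 min for 30 min; normalized to ATA control and DMSO.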

Sequence of UniProt O95398 (O95398 whole entry, looked up): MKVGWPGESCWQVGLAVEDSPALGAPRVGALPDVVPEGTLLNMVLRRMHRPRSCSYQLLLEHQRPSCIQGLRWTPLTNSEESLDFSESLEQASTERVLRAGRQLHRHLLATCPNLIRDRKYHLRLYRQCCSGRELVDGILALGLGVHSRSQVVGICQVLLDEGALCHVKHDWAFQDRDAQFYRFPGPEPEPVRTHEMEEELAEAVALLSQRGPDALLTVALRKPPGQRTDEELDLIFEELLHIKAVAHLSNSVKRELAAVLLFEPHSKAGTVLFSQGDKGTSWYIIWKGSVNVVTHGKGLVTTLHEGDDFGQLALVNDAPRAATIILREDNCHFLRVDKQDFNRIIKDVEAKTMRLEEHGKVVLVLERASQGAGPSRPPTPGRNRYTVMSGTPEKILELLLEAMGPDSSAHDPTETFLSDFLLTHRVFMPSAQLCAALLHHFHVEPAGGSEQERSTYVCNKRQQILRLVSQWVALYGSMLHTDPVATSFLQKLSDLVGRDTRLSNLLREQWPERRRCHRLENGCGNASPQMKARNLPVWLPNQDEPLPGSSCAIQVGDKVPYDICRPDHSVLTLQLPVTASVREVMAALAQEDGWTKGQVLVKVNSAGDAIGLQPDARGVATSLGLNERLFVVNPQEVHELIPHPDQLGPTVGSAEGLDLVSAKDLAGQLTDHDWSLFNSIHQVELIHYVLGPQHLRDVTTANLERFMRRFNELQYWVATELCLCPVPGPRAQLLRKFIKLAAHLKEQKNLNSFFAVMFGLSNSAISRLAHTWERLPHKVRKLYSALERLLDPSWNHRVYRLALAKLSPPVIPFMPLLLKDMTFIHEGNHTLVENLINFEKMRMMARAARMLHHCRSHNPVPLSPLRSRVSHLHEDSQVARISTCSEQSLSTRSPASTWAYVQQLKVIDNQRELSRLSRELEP

Activity change, negative = inhibition, inactive:
CCOC(=O)C1=C[C@]2(CC)CCCN3CCc4c(n1c1ccccc41)[C@@H]32, CC1=C2C(O)C(=O)OC3CC4C(C)(C)C(=O)C=C[C@]4(C)C(CC1)[C@@]23C (stereo not given in full) 14.9%, Cc1ccc(S[C@@H](CCN2CC[C@H](O)CCC2=O)c2ccccc2)cc1 0.828%, COc1ccc(-c2nc3cnc(N(C)C)nc3n(Cc3cccs3)c2=O)cc1 5.14%, CC1CN(S(=O)(=O)c2cccc3cnccc23)CCN1 (stereo not given) 10.2% [at 75.8 µM], COc1ccccc1O, CC1CNCCN1S(=O)(=O)c1cccc2cnccc12 (stereo not given), CNCCC(Oc1ccccc1OC)c1ccccc1 (stereo not given), O=C(c1ccncc1)N1CCC2(CC1)CCN(c1ccncc1)CC2 20.1%, O=NN(CCCl)C(=O)NC1CCCCC1 11.7%, COc1ccc(C(=O)C[n+]2cccc(Br)c2)cc1 16.7%, O=C(O)Cc1cn(-c2ccccc2)nc1-c1ccc(Cl)cc1 20.4%, Cc1cc(C)cc(C(=O)NCc2nc(-c3cccc(NC(=O)c4ccccn4)c3)oc2C)c1 15.5%, Cn1cc(-c2nc3cncnc3n(CCN)c2=O)c2ccccc21 2.41%, COc1cnc(NS(=O)(=O)c2ccc(N)cc2)nc1, CC(C)=CCC/C(C)=C/COc1c2occc2cc2ccc(=O)oc12 -4.41%, CCCCNC(=O)O[C@@H]1C[C@@H]2CCN3C(=O)CCC[C@H]([C@H]1CC)[C@H]23 -14.1%, N#CC(C#N)=C(N)/C(C#N)=C/c1ccc2[nH]ccc2c1, O=C1C2C=CC=CC2=NC(=S)N1CCN1CCC(=C(c2ccc(F)cc2)c2ccc(F)cc2)CC1 (stereo not given) 3.06% [at 75.8 µM], Cc1ncsc1CCC(=O)N1CCCC(c2nc(-c3ccncc3)ncc2-c2ccccc2)C1 (stereo not given) 1.5%, O=C(O)CCC(=O)Nc1ccc(S(=O)(=O)Nc2nccs2)cc1, CCCCCCCCCCCCCC[N+](C)(C)Cc1ccccc1 5.06%, CC(=O)Nc1ccccc1-c1nc(CNC(=O)c2cccc(F)c2)c(C)o1 8.23%, CCOc1ccc(S(=O)(=O)O)c2cccnc12 11.2%, CCOC(OCC)P(=O)(O)CCCNCc1ccc(Cl)c(Cl)c1, Cc1cccc(CN2CCN(C(c3ccccc3)c3ccc(Cl)cc3)CC2)c1 (stereo not given), COc1ccccc1-c1cc(=O)c2cc(O)ccc2o1 0.281%, Cn1c(=O)c(CCc2ccccc2)nc2cnc(N3CCOCC3)nc21 -0.144%, Cc1ccc2c(n1)Oc1ccc(C(C)C(=O)OCC(=O)N(C)C)cc1C2 (stereo not given), O=C(O)COc1ccc(OCCNC[C@@H](O)COc2ccccc2)cc1 2.99%, O=C1OC2(c3ccc(O)cc3Oc3cc(O)ccc32)c2ccccc21 -91.4%, Nc1nc2[nH]c(=O)c(=O)[nH]c2c(=O)[nH]1 4.92%, COc1ccc2[nH]cc(CCNc3ccnc(-c4ccc5c(c4)OCO5)n3)c2c1 -18.9%, CCCCCCCCCCCCCCNCCO 14.2%, CC(=O)N(CC(C)C(=O)O)c1c(I)cc(I)c(N)c1I (stereo not given) 15.5% [at 75.8 µM], CC(=O)OCC1=C(C(=O)O)N2C(=O)[C@@H](NC(=O)CSc3ccncc3)[C@H]2SC1 5.89%, CCNc1ncc2nc(-c3ccc(F)cc3)c(=O)n(Cc3ccc(F)cc3)c2n1 4.32%, Cn1cccc1C(=O)N1CCC2(CC1)CCN(c1ccc(-c3ccccc3)cc1)CC2 21.5%, CN(Cc1ccco1)c1cc(-c2ccc3c(c2)OCO3)ncn1 1.54%, O=C1C(c2ccccn2)=[N+]([O-])c2ccccc21 5.4%, Cc1nc(NS(=O)(=O)c2ccc(N)cc2)nc(C)c1Br 8.35%, O=C(Nc1ccccc1)N1CCCC2(CCNCC2)C1 6.17%, CN(C)c1ccc(-c2nc(NCc3cccnc3)c3ccccc3n2)cc1 4.53%, CCCCCCCC/C=C\CCCCCCCC(=O)NCCc1ccc(O)c(O)c1 -21.2% [at 75.8 µM], COc1ccc(-c2nc3cnc(OC)nc3n(C3CC3)c2=O)cc1 16.1%, H-RKDVY-OH 18.6%, C[C@]12CC[C@@H]3c4ccc(O)cc4CC[C@H]3[C@@H]1CCC2=O, O=c1cnc2cnc(N3CCNCC3)nc2n1C1CC1 16%, Cc1nc2cnc(N3CCN(C)CC3)nc2n(C2CC2)c1=O 9.37%, c1cncc(-c2ccc3ncnc(NC4CCNCC4)c3c2)c1 10.6%, CC(NC(=O)C1CCOCC1)c1nnc2n1CCN(Cc1ccc(F)cc1)CC2 (stereo not given) 18.1%, O=C1CCN(Cc2cccnc2)CCN1[C@H](CO)Cc1ccccc1 -9.95%, CC(C)(O)C1CC[C@@]2(C)C3CCC4[C@@]5(C)CCCC(C)(C)C5C(O)C[C@]4(C)[C@]3(C)CC[C@@H]12 (stereo not given in full) 5.61%, CC(=O)c1c(O)c(C)c(O)c2c1OC1=CC(=O)C(C(C)=O)C(=O)C12C (stereo not given) 17.8%, CCCCN1CC[C@H]2C=CC[C@@H](C(=O)N3CCN(c4ccccc4)CC3)[C@H]2C1=O 5.69%, OC[C@H]1O[C@@H](n2cnc3c(NC4CCCCC4)ncnc32)[C@H](O)[C@@H]1O, O=C(Nc1ccccc1)N1CC[C@@]2(CCCN(C(=O)c3cnccn3)C2)C1 4.74%, COc1cccc(-c2nc(NCc3cnc(C)cn3)c3ccccc3n2)c1 -9.6%, O=C(c1cnn(-c2nccc(-c3ccccc3F)n2)c1C1CC1)N1CCN(CCO)CC1 9.05%, COc1cc(C(=O)NC2CCCNC2)cc(OC)c1OC (stereo not given) 4.02%, Oc1ccc2c(c1)OCC1(O)Cc3cc(O)c(O)cc3C21 (stereo not given) 14.2%, N#Cc1cccc(NC(=O)N2CC[C@@]3(CCCN(C(=O)c4csnn4)C3)C2)c1 19.3%, COC(=O)c1c(-c2cc(OC)c(OC)c(OC)c2)c2ccnc(OCc3ncccn3)c2c(=O)n1Cc1ccnc(C)c1 -12.7%, COCC(=O)Nc1cc(C(=O)N2CCN(c3ccccc3)C(=O)C2)cc2nc(-c3ccccc3)n(C)c12 11%, C[C@H]1CCC(=O)N([C@H](CSc2ccccc2)Cc2ccccc2)CC1 -18.2%, O=C(Nc1cccc(F)c1)N1CC2(CCN(C(=O)c3ccco3)CC2)C1 -7.63%, NC(N)=NCc1cccc(I)c1, CCCCN(CCCC)c1ccc(/C=C/c2ccnc3ccccc23)cc1 203%, CCCCC(CC)CN1CN(CC(CC)CCCC)CC(C)(N)C1 (stereo not given), COc1cc2c(cc1OC)C(=O)C(CC1CCN(Cc3ccccc3)CC1)C2 (stereo not given) 2.03%
